Measurements: ChEMBL document CHEMBL4888484, “Replenishing the malaria drug discovery pipeline: Screening and hit evaluation of the MMV Hit Generation Library 1 (HGL1) against asexual blood stage Plasmodium falciparum ,using a nano luciferase reporter read-out” (2022)
Hit rate of the full screen: of about 150,000 compounds, about 540 (0.36%) showed an effect of 50% or more. The list shows a part of the results.

What follows are molecules tested on Plasmodium falciparum (assay: Primary screen in NF54 nanoGlo assay, in single point, at 2uM, 72h; a lower Z score goes with more inhibition). Details: timepoint 72 hour.
Type: functional, Erythrocyte

Row | Structure (SMILES) | % Inhibition [%] | Z score
1 | CCN(CC)C(N)=NCCOc1cccc(C)c1 | -5 | 0.51
2 | NC(=O)[C@@H]1CC(C(=O)Nc2nccs2)=NN1c1ccccc1 | 7 | -1.25
3 | CC(C)CN1CCCn2nc(CNC(=O)Nc3ccc(Cl)cc3)cc2C1 | -1 | 0.24
4 | O=C(COc1ccc(Cl)cc1)NC[C@H](O)c1ccoc1 | -6 | 1
5 | Cc1cc(Br)ccc1NC(=O)CCNC1CCOC1C (stereo unspecified) | -4 | 0.5
6 | CC(CC1CCCCCN1C(=O)OC(C)(C)C)NCc1cccc(C(N)=O)c1 (stereo unspecified) | 1 | -0.11
7 | O[C@@H](CN(Cc1ccccc1)c1ncccn1)c1ccco1 | -18 | 1.62
8 | Cc1nccc(C(=O)Nc2ccc(N3CCc4sccc4C3)cc2)n1 | -16 | 1.99
9 | CN(CCC1CCOCC1)C(=O)Cn1ccc2ccccc2c1=O | 17 | -2.19
10 | C=C(C)C(NC(=O)NC1CCCc2cn[nH]c21)c1ccc(F)c(F)c1 (stereo unspecified) | -3 | 0.38
11 | Cn1cncc1C(=O)N1CC(=O)N(CC(F)(F)F)C1 | -2 | 0.25
12 | CC1CCN(CCNS(=O)(=O)c2ccc3ccccc3c2)CC1 | 1 | -0.17
13 | O=C(C[C@H]1CCc2ccccc2C1)Nc1nncn1C1CC1 | -5 | 0.75
14 | Cc1noc(C)c1CCCNS(=O)(=O)c1cc(Cl)cnc1N | -9 | 1.77
15 | CC(=O)N1CCC(C(=O)N2C[C@H](Nc3ncccn3)[C@@H](C3CC3)C2)CC1 | 11 | -1.44
16 | COc1cc2ccc1OCC(=O)N[C@@H](C)C(=O)N(C)CCCCN(C(=O)c1cc(Cl)cn1C)CCCNC2=O | -24 | 3.05
17 | O=C(Nc1ccc(S(=O)(=O)N2CCOCC2)cc1)c1sc2ccccc2c1Cl | -16 | 2.24
18 | CCCOC(=O)N1CCC[C@@]2(CCC(=O)N(Cc3cnc(C)cn3)C2)C1 | 6 | -0.75
19 | COc1cccc(CC(=O)N[C@H](C)c2onc(-c3ccc(F)cc3)c2C(=O)O)c1 | -1 | 0.16
20 | COc1ccc2c(c1)Oc1cc(C)ccc1N=C2N1CCCN(C(=O)Cc2ccccc2)CC1 | 4 | -0.52
21 | CC1C=CC2C(=O)N(CC(F)(F)F)C(=O)C2C1C(=O)N1CCC(Cc2ccccc2)CC1 (stereo unspecified) | 38 | -4.26

Row | Structure (SMILES) | % Inhibition [%] | Z score
22 | CCOCc1nc(C)c(C(=O)N2CC3(CCC3)[C@@H]2C(C)C)s1 | 0 | -0.05
23 | CCN1CC(=O)N[C@H]2CN(C(=O)CCCn3cccn3)CC[C@@H]2OCc2cccc(c2)Oc2cccc(c2)CC1=O | -8 | 1.47
24 | CC[C@H]1C(=O)NCCN1Cc1ccc2c(c1)CN(C/C=C/c1ccccc1OC)CCO2 | -2 | 0.44
25 | Cn1nncc1C(=O)Nc1ccc(Cl)cc1-c1ccc(Cl)cc1 | 11 | -1.52
26 | C#CC(CC)(CC)NC(=O)Nc1ccc(OC)cc1 | 0 | 0.05
27 | Cc1cc(-n2cc(C#N)c(=O)[nH]c2=O)ccc1N1CCCC1 | -10 | 1.62
28 | CCCn1cc(NC(=O)CC(C)(C)CC(=O)OC)cn1 | -3 | 0.44
29 | Cn1nccc1-c1ccc(-c2nc(C(C)(C)C)n[nH]2)cc1 | 3 | -0.43
30 | Cc1cc2cc(C(=O)NS(=O)(=O)CC3(C#N)CCC3)oc2cc1C | 1 | -0.1
31 | Cc1cc(=O)c(C(=O)N(C)Cc2cnn(C(C)C)c2)c[nH]1 | -15 | 2.14
32 | CC1CC(C)N(C(=O)c2ccc3c(c2)COCO3)C1 (stereo unspecified) | 1 | -0.2
33 | COc1ccc(S(=O)(=O)N2CC(N3C(=O)CCC3=O)C2)cc1C | 16 | -1.85
34 | COC1(C(F)(F)F)CCN(c2ccc3nc(C)nn3n2)CC1 | 11 | -1.45
35 | CCOc1ccccc1S(=O)(=O)NCC1(OCCO)CCCC1 | -9 | 1
36 | COc1cc(-c2nc(CN3CCC[C@H]3c3nc4ccccc4s3)c(C)o2)ccc1F | 1 | -0.17
37 | CC1CCS(=O)(=O)CCN1C(=O)NC1CCCc2nn(C)cc21 (stereo unspecified) | -5 | 0.71
38 | CC(=O)c1cccc(S(=O)(=O)N2CCN(C(=O)c3cnn4ccccc34)CC2)c1 | 3 | -0.46
39 | O=C(CN1CCO[C@H](c2ccc(Cl)cc2)C1)Nc1ccc(O)cc1 | -39 | 4.58
40 | O=C(NCc1ccccc1)N1CCCN(c2nc3cc(Cl)ccc3n3cccc23)CC1 | 0 | 0.02
41 | Cc1cccc(C)c1CN(CC(C)C)C(=O)c1cc(C(=O)O)nn1C | -8 | 1.28
42 | CCOC(=O)[C@H]1CC[C@@H](C)N(S(=O)(=O)c2cnn(CC)c2)[C@H]1C | -5 | 0.48

Row | Structure (SMILES) | % Inhibition [%] | Z score
43 | COc1cccc2cc(C(=O)N3CCN(c4ccc(-c5ccco5)nn4)CC3)oc12 | -11 | 1.71
44 | CN1C[C@H]2CC[C@@H](C1)N(Cc1ccc(-c3ccccc3C#N)o1)C2 | 6 | -0.89
45 | Cc1ccc(CN2CCC(Oc3ccc4ncccc4c3)(C(=O)O)CC2)o1 | -4 | 0.53
46 | COc1ccc(OC)c(-c2c(C3c4ccccc4C(=O)N3CC3CCCO3)c3ccccc3n2C)c1 (stereo unspecified) | 18 | -2.28
47 | CCN(C(=O)c1cccc(S(=O)(=O)N2CCOCC2)c1)c1nc2c(C)cccc2s1 | 1 | -0.12
48 | CS(=O)(=O)N1CCC(C(=O)Nc2cccc3ccccc23)CC1 | 9 | -1.18
49 | O=C(NC1CCCC1)[C@H]1CC(=O)N(c2n[nH]c3cc(Br)ccc23)C1 | -2 | 0.3
50 | COc1ccc(NC(=O)c2ccc3nn(CC(=O)Nc4cc(C)ccc4C)c(=O)n3c2)cc1 | -29 | 2.52
51 | CN(C)c1ccc(/C=C/c2c(Cl)cnc3ccccc23)cc1 | -31 | 3.63
52 | O=C(N1CCCC(CN2CCN(c3ccccn3)CC2)C1)C1(O)CCOC1 (stereo unspecified) | -9 | 1.21
53 | CCCN(CCC)C(=O)C[C@H]1C(=O)NCCN1Cc1ccoc1 | -19 | 2.79
54 | COc1cccc2c(N3CCN4C(=O)NC[C@H]4C3)nccc12 | -3 | 0.5
55 | CN(CC(=O)NC1CC1)c1cccc(F)c1C#N | 0 | 0.03
56 | O=C(c1ccc2[nH]cnc2c1)N1CCN(C(=O)c2cc3n(n2)CCCC3)CC1 | -10 | 1.51
57 | O=C(COc1cccc(Cl)c1)NC[C@@H](c1ccccn1)N1CCOCC1 | 2 | -0.3
58 | Cc1noc(C)c1Cc1ccc(C(=O)N(CCN2CCCC2)C2CCOCC2)o1 | -8 | 1.24
59 | Cn1cc(CNC(CC2CCOC2)c2ccccc2)cn1 (stereo unspecified) | -16 | 1.41
60 | CCOC(=O)N1CCN([C@H]2CCCN(C3CCN(c4ccc5c(c4)CCC5)CC3)C2)CC1 | -11 | 1.8
61 | CO[C@@H](C)c1cccc(-c2n[nH]c(C(=O)N(C)C)n2)c1 | -4 | 0.82
62 | CCC(CC)(OC)c1noc(Cc2ccsc2)n1 | 1 | -0.07
63 | O=C(CCC(=O)N1Cc2ccccc2Oc2ncccc21)NC1CCCCC1 | 5 | -0.6

Row | Structure (SMILES) | % Inhibition [%] | Z score
64 | COc1ccc([C@H](C)NCc2nc(C)cc(C)n2)c(F)c1 | -9 | 1.67
65 | CN(C)c1ccc(S(=O)(=O)Nc2ccc([C@H]3C[C@@H]3C(=O)O)cc2)cc1 | -6 | 0.8
66 | O=C(Nc1ccccc1CCc1ccccn1)N[C@H]1CS(=O)(=O)C[C@@H]1O | -8 | 1.04
67 | Oc1ccc(CN2CCO[C@H](c3ccc(Cl)cc3)C2)cc1Cl | 0 | 0.03
68 | O=C(Cc1ccc(F)c(Cl)c1F)NCCN1CCC(O)CC1 | 9 | -0.82
69 | COC(=O)c1cccc(C#Cc2cccc(NC(=O)NCc3cccnc3OC)c2)c1 | -6 | 1.23
70 | Cc1nn(CCC(N)=O)c(C)c1-c1cccc(C(=O)NCc2cccs2)c1 | -11 | 1.18
71 | Cc1cnc(-c2ccncc2)n1CCC1CCN(C(=O)C2CCCCC2)CC1 | 2 | -0.31
72 | CC(C)(C)OC(=O)NCc1cccc(NCc2ccc(CO)o2)c1 | -3 | 0.36
73 | CC(C)CNC(=O)c1coc(CN2CCN(Cc3cc(F)ccc3F)CC2)n1 | -12 | 1.61
74 | O=C(Nc1nc(-c2cc(F)ccc2F)cs1)c1cnsn1 | -8 | 1.46
75 | CN(CCN1C(=O)NC(C)(C)C1=O)C1CCCCCC1 | 1 | -0.19
76 | CCOc1ccc(-c2ncnc(N3CCCCC3)c2N)cc1 | 3 | -0.36
77 | CC(c1ccc(F)c(F)c1)N(C)C(=O)NCC1CCS(=O)(=O)C1 (stereo unspecified) | -4 | 0.58
78 | COCCOC1CN(S(=O)(=O)N2CC(C)OC(C)C2)C1 (stereo unspecified) | 1 | -0.15
79 | O=c1c2ccccc2ncn1CCN1CCCS1(=O)=O | -10 | 1.97
80 | CN(CC(C)(C)C)S(=O)(=O)CC[C@H]1CCCO1 | -7 | 0.97
81 | Cc1ccsc1CN(Cc1ccccc1)C(=O)CN(C[C@H]1CCCO1)C(=O)c1cccc(F)c1 | 1 | -0.12
82 | O=C1NCCN1C(=O)N1C2CCC1CC(=C1CC1)C2 | 20 | -2.65
83 | FC1(F)CC[C@H](Cc2nc(-c3cn[nH]c3)no2)C1 | -11 | 1.17
